Assay results as given in the supplement of paper PMC3334620.
In all, about 33,000 sequences were measured (“E-score (-0.5 to 0.5)”: median about -0.04, highest 2% from about 0.36 on). Some of the results follow.

Molecular target: T1, Hmlalpha2 (UniProt P0CY09)
T1 sequence: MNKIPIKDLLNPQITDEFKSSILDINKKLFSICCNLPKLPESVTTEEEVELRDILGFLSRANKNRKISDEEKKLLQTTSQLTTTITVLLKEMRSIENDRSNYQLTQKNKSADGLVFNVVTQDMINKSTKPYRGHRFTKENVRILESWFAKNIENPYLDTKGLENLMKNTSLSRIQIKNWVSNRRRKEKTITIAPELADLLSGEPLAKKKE
Test: PBM E-score (8-mer binding enrichment) (E-score (-0.5 to 0.5)); higher = stronger / more preferred TF binding; most listed sequences are background and not binding sites
Details: protein concentration: 200 nM; construct: GST-full length
Procedure: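 Universal 'all 10-mer' protein binding microarrays (Agilent AMADID 015681) probed with GST-tagged S. cerevisiae TFs (full-length or DBD) made by in vitro transcription/translation (PURExpress), about 100-200 nM. Bound TF was detected with fluorescent anti-GST. Each ungapped 8-mer (which stands for itself and its reverse complement) is scored by the PBM enrichment score (E-score), a modified Wilcoxon-Mann-Whitney statistic from -0.5 to +0.5, computed with the Universal PBM Analysis Suite. Scale: above 0.35 generally sequence-specific binding.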

| Sequence | PBM E-score |
| --- | --- |
| AGACCCTA | -0.145 |
| ATTCAGCG | -0.0822 |
| AAATACGC | 0.31 |
| AAGTCTTC | -0.0639 |
| CATTTTTC | 0.0489 |
| CAGGTATC | -0.166 |
| ATTACAAA | 0.414 |
| TCACCACA | -0.0321 |
| AACAATAC | 0.307 |
| ACAAGAGC | 0.139 |
| GTGCGTAA | 0.406 |
| CAGACAGC | -0.154 |
| AATTCCTG | -0.0426 |
| ATGTATTG | 0.416 |
| AGTTACGG | -0.207 |
| AATGCGCA | -0.00584 |
| TGGAACAA | 0.119 |
| CTTCGCAC | -0.0508 |
| GTCTCATA | 0.0229 |
| AATTGACA | 0.275 |
| CGTAGGGC | -0.142 |
| CATAGAAG | 0.168 |
| CAGCGGTA | 0.056 |
| TCCCTCCA | -0.271 |
| ACGCCGCA | -0.0652 |

| Sequence | PBM E-score |
| --- | --- |
| AGCCTAGA | -0.204 |
| ACGGGACT | -0.101 |
| GATAAATC | -0.0973 |
| CAGTTACC | -0.0227 |
| CGAGAGCC | -0.342 |
| ACCTAAGT | 0.0659 |
| ATTGTCAA | 0.182 |
| AACTAACC | 0.254 |
| GAAATGGC | -0.227 |
| AAAAGCGC | 0.0549 |
| TCGAGGCA | -0.0756 |
| CAATGGCG | -0.276 |
| AGCTCGAA | -0.107 |
| TCATTCCA | -0.147 |
| GTGCCGCA | -0.15 |
| TCGAATCA | -0.0462 |
| CATTCCTA | -0.0738 |
| ACTCCTTA | -0.103 |
| ACGGCACC | -0.176 |
| GCCCACAA | -0.223 |
| AAGTATAA | 0.148 |
| CAGCCGGA | -3e-05 |
| AATACTGC | -0.164 |
| TATGAATA | 0.158 |
| AGTACCTA | 0.12 |

| Sequence | PBM E-score |
| --- | --- |
| CACTTTCA | -0.0448 |
| GTAAACAC | 0.416 |
| AGTTAACA | 0.392 |
| GCATGACC | -0.191 |
| GACCGTCA | -0.158 |
| AACAGCAT | 0.124 |
| CCATACCG | -0.227 |
| ATAGGGCA | -0.199 |
| CGTGCACA | 0.0535 |
| AGTTCGAC | 0.0995 |
| AATGACCA | -0.128 |
| TCGGAAAA | 0.033 |
| GCTCCGCA | -0.128 |
| ATGCATTC | 0.0676 |
| CCCTCGAA | -0.283 |
| GCAACTTA | 0.121 |
| ACCACTAC | -0.103 |
| GTGCTAAA | 0.201 |
| CATAGCCG | 0.13 |
| CCCAGGAG | -0.293 |
| CCAGGGCA | -0.241 |
| ACGGGATA | -0.00603 |
| ATAAGGTC | -0.0499 |
| AGTACTTA | 0.095 |
| AGCCAACG | -0.0146 |

| Sequence | PBM E-score |
| --- | --- |
| GACATATC | 0.0678 |
| AGCGAACT | -0.023 |
| CCTCGAGC | -0.148 |
| CAGAACAA | 0.255 |
| AGGGTGCG | -0.148 |
| CCGCGCGG | -0.0226 |
| CGGGTCCA | -0.262 |
| ACAATACA | 0.326 |
| TTAACAAA | 0.347 |
| ACCAATAC | 0.118 |
| AGAGAGCA | -0.234 |
| CGATACAA | 0.0812 |
| CACAAATA | 0.248 |
| GCGTCGCA | -0.0805 |
| TCCCGCGA | -0.243 |
| GAGATATC | -0.00919 |
| ACTTATGC | -0.00662 |
| CAAAACTC | 0.0232 |
| GGCGAACC | -0.277 |
| CGCCGTAG | 0.0186 |
| GCCCGCTA | -0.191 |
| CGAATTAC | 0.236 |
| TGATGACA | 0.108 |
| CCCCATTC | -0.266 |
| GAAACTGC | -0.28 |

| Sequence | PBM E-score |
| --- | --- |
| TAATCATA | 0.188 |
| CGAGTTCC | 0.0842 |
| ATGCCACA | 0.0402 |
| GGAGGTAC | -0.204 |
| AGGAGCGG | -0.361 |
| AAGGCCAC | -0.186 |
| CCACCAGC | -0.127 |
| GACGCCGA | -0.126 |
| GCCGGGAC | -0.307 |
| ACGATCAG | -0.0473 |
| CTGAGCCA | -0.213 |
| TGAAAGCA | 0.101 |
| AACATCTC | 0.22 |
| GCTCCAAC | -0.042 |
| GTAACCTA | 0.143 |
| AAACTTTG | 0.115 |
| AACGAAAC | 0.0787 |
| GGGCCCTA | -0.325 |
| GGCGTCAC | -0.233 |
| CTTCCACA | -0.031 |
| AGGATTAC | 0.279 |
| ATCGCCAC | -0.102 |
| CCTAAAAC | 0.0405 |
| TACTCATA | -0.0114 |
| ATGTTAAG | 0.445 |

| Sequence | PBM E-score |
| --- | --- |
| GAAATCCC | -0.119 |
| ACGAGCTA | 0.108 |
| GGTCTGGA | -0.32 |
| CTTGATAC | 0.169 |
| GAGCACTC | -0.122 |
| GGACACCA | -0.228 |
| CAGGCGCC | -0.0392 |
| AAGCGCAC | -0.0172 |
| GCCATAAC | -0.0921 |
| CAACATCG | 0.176 |
| ACGGGTAT | 0.105 |
| GGCAACTA | 0.0116 |
| GCTTTACA | 0.405 |
| ACATAGGG | 0.251 |
| CGGATCAG | -0.168 |
| GATAAACA | 0.212 |
| AATTCGGA | -0.00295 |
| CTCGTTAA | 0.195 |
| GGCGTCCA | -0.138 |
| CAACGTTG | 0.336 |
| ATCTTTGC | 0.108 |
| ACGTTTAA | 0.323 |
| AGTCAAAC | -0.0636 |
| GCAAACAA | 0.118 |
| CGAGGCTA | -0.00576 |

| Sequence | PBM E-score |
| --- | --- |
| CAAGTAAC | 0.216 |
| CAACTAAA | 0.176 |
| AACGAGTT | 0.177 |
| GCCATCAC | -0.133 |
| CCCATTGA | -0.0288 |
| ATGTATGA | 0.296 |
| GCACTCTA | -0.147 |
| AACTAGTA | 0.178 |
| AGAATACT | 0.231 |
| AAGTGTCC | -0.0446 |
| AGCCTTGG | -0.102 |
| CAACCAGA | 0.108 |
| CCCAGAAG | -0.154 |
| GAACATCC | 0.0646 |
| CCCATACC | -0.159 |
| GACGGCGC | -0.218 |
| AACTAGAT | 0.0979 |
| AGCGCAAA | -0.00143 |
| GTGCTAGA | -0.00911 |
| GGAAAAAC | 0.0566 |
| GGCATTCA | -0.211 |
| GCAGTGAC | -0.0529 |
